Experimental data reported in paper PMC2661964, “Mammalian Kinesin-3 Motors Are Dimeric In Vivo and Move by Processive Motility upon Release of Autoinhibition” (PLoS Biology, 2009).
These are yes or no findings as the source states them, for the method shown. Binding seen in cells or lysates may run through a third protein. Some results given as binding are weak or reduced against the parent protein; the word gives no strength.

Biological target: Myc-KIF1A (rat) (UniProt F1M4A4)
Experiment: co-IP; lysates of COS cells coexpressing Myc- and mCit-tagged KIF1A constructs of the same length; immunoprecipitated with anti-Myc or control IgG, SDS-PAGE, immunoblot

binding: binds
B1: mCit-KIF1A (natural protein, rat, UniProt F1M4A4 1-1707, looked up)
chain: MAGASVKVAVRVRPFNSREMSRDSKCIIQMSGSTTTIVNPKQPKETPKSFSFDYSYWSHTSPEDINYASQKQVYRDIGEEMLQHAFEGYNVCIFAYGQTGAGKSYTMMGKQEKDQQGIIPQLCEDLFSRINDTTNDNMSYSVEVSYMEIYCERVRDLLNPKNKGNLRVREHPLLGPYVEDLSKLAVTSYNDIQDLMDSGNKARTVAATNMNETSSRSHAVFNIIFTQKRHDAETNITTEKVSKISLVDLAGSERADSTGAKGTRLKEGANINKSLTTLGKVISALAEMDSGPNKNKKKKKTDFIPYRDSVLTWLLRENLGGNSRTAMVAALSPADINYDETLSTLRYADRAKQIRCNAIINEDPNNKLIRELKDEVTRLRDLLYAQGLGDITDTNTVPGGPKLTNALVGMSPSSSLSALSSRAASVSSLHERILFAPGSEEAIERLKETEKIIAELNETWEEKLRRTEAIRMEREALLAEMGVAMREDGGTLGVFSPKKTPHLVNLNEDPLMSECLLYYIKDGVTRVGREDAERRQDIVLSGHFIKEEHCIFRSDSRGGGEAVVTLEPCEGADTYVNGKKVTEPSILRSGNRIIMGKSHVFRFNHPEQARQERERTPCAETPAEPVDWAFAQRELLEKQGIDMKQEMEQRLQELEDQYRREREEATYLLEQQRLDYESKLEALQKQMDSRYYPEVNEEEEEPEDEVQWTERECELALWAFRKWKWYQFTSLRDLLWGNAIFLKEANAISVELKKKVQFQFVLLTDTLYSPLPPDLLPPEAAKDRETRPFPRTIVAVEVQDQKNGATHYWTLEKLRQRLDLMREMYDRAAEVPSSVVEDCDNVVTGGDPFYDRFPWFRLVGRAFVYLSNLLYPVPLVHRVAIVSEKGEVKGFLRVAVQAISADEEAPDYGSGVRQSGTAKISFDDQHFEKFQSESCPVVGMSRSGTSQEELRIVEGQGQGADAGPSADEVNNNTCSAVPPEGLLDSPEKAALDGPLDTALDHLRLGSTFTFRVTVLQASSISAEYADIFCQFNFIHRHDEAFSTEPLKNTGRGPPLGFYHVQNIAVEVTKSFIEYIKSQPIVFEVFGHYQQHPFPPLCKDVLSPLRPSRRHFPRVMPLSKPVPATKLSTMTRPSPGPCHCKYDLLVYFEICELEANGDYIPAVVDHRGGMPCMGTFLLHQGIQRRITVTLLHETGSHIRWKEVRELVVGRIRNTPETDEALIDPNILSLNILSSGYVHPAQDDRQFLDSDIPRTFYQFEAAWDSSMHNSLLLNRVTPYREKIYMTLSAYIEMENCTQPAVITKDFCMVFYSRDAKLPASRSIRNLFGSGSLRATEGNRVTGVYELSLCHVADAGSPGMQRRRRRVLDTSVAYVRGEENLAGWRPRSDSLILDHQWELEKLSLLQEVEKTRHYLLLREKLETTQRPVPEVLSPASSEDSESRSSSGASSPLSAEGQPSPLEVPNERQRELAVKCLRLLMHTFNREYTHSHVCISASESKLSEMSVTLMRDPSMSPLGAATLTPSSTCPSLIEGRYGATDVRTPQPCSRPASPEPELLPELDSKKTPSPVRATETEKEPQRLLVPDIQEIRVSPIVSKKGYLHFLEPHTAGWAKRFVVVRRPYAYMYNSDKDTVERFVLNLSTAQVEYSEDQQAMLKTPNTFAVCTEHRGILLQANSDKDMHDWLYAFNPLLAGTIRSKLSRRRSAQMRV
notes: KIF1A (Kinesin-3 motor), rat, full length; also called mCit-tagged KIF1A; FL KIF1A; source: COS cells, transfected; in lysate and in live cells; not shown: mCit (monomeric citrine), N-terminal, kept
